# This is one part of the list.
# B1: DrGal9 (Danio rerio) (protein)
# chain: MAFYQQPPYYNPRIPFSGPIQGGLQDGKSIIISGRVLPGANRFHVNLQCGSHSEANVALHFNPRYEDTDYVVNNSYLNRTWGSEERKYESPFAQGQTFTLQILVAQDKYKISTNGRHFMDYKHRIPFTQVDTVAVEGMVEVNSVAFQNPAGFIPPQAGYAPQYAVPPGCGFPAFPSAPNYTIPHKTVMNGGLHPGKNIVINGVVNPNAKSIIFNLCYRSGIAFHYNPRFDENVVVRNTNQMEKWGAEERFGGLPFHKGQPFQVTISCNPQHYNVFVNGKQEHTYKHRYTKLNDIDILEICGDLQLTSVQA
# Legend:
# Assay in all cases: glycan array binding signal (z-score within array); higher = stronger binding
# Settings in all cases: glycan notation: IUPAC condensed, linker removed
# [1] = target: Fuc(a1-2)[GalNAc(a1-3)]Gal(b1-3)GlcNAc(b1-3)GalNAc
# Outline: (§1)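 Glycan array binding is given as a within-array Z-score, which can be read as non-binding when negative. The arrays, 3228 of them, came from the Consortium for Functional Glycomics database and were retained only where the protein sequence was available. Z-scores were averaged across arrays of the same protein sequence at different concentrations or buffers and across linkers.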
# [2] = target: Fuc(a1-2)[GalNAc(a1-3)]Gal(b1-3)GlcNAc(b1-6)GalNAc
# Outline: as §1
# [3] = target: Fuc(a1-2)[GalNAc(a1-3)]Gal(b1-4)Glc
# Outline: as §1
# [4] = target: Fuc(a1-2)[GalNAc(a1-3)]Gal(b1-4)GlcNAc
# Outline: as §1
# [5] = target: Fuc(a1-2)[GalNAc(a1-3)]Gal(b1-4)GlcNAc(b1-2)Man
# Outline: as §1
# [6] = target: Fuc(a1-2)[GalNAc(a1-3)]Gal(b1-4)GlcNAc(b1-2)Man(a1-3)[Fuc(a1-2)[GalNAc(a1-3)]Gal(b1-4)GlcNAc(b1-2)Man(a1-6)]Man(b1-4)GlcNAc(b1-4)GlcNAc
# Outline: as §1
# [7] = target: Fuc(a1-2)[GalNAc(a1-3)]Gal(b1-4)GlcNAc(b1-2)Man(a1-3)[Fuc(a1-2)[GalNAc(a1-3)]Gal(b1-4)GlcNAc(b1-2)Man(a1-6)]Man(b1-4)GlcNAc(b1-4)[Fuc(a1-6)]GlcNAc
# Outline: as §1
# [8] = target: Fuc(a1-2)[GalNAc(a1-3)]Gal(b1-4)GlcNAc(b1-3)Gal(b1-4)GlcNAc
# Outline: as §1
# [9] = target: Fuc(a1-2)[GalNAc(a1-3)]Gal(b1-4)GlcNAc(b1-3)Gal(b1-4)GlcNAc(b1-3)Gal(b1-4)GlcNAc
# Outline: as §1
# [10] = target: Fuc(a1-2)[GalNAc(a1-3)]Gal(b1-4)GlcNAc(b1-3)GalNAc
# Outline: as §1
# [11] = target: Fuc(a1-2)[GalNAc(a1-3)]Gal(b1-4)GlcNAc(b1-3)[Fuc(a1-2)[GalNAc(a1-3)]Gal(b1-4)GlcNAc(b1-6)]GalNAc
# Outline: as §1
# [12] = target: Fuc(a1-2)[GalNAc(a1-3)]Gal(b1-4)GlcNAc(b1-6)GalNAc
# Outline: as §1
# [13] = target: Fuc(a1-2)[GalNAc(a1-3)]Gal(b1-4)[Fuc(a1-3)]GlcNAc
# Outline: as §1
# [14] = target: Fuc(a1-2)[GalNAc(a1-3)]Gal(b1-4)[Fuc(a1-3)]GlcNAc(b1-3)GalNAc
# Outline: as §1
# [15] = target: Fuc(a1-2)[GalNAc(a1-4)]Gal(b1-4)GlcNAc
# Outline: as §1
# [16] = target: Fuc(a1-2)[GalNAc(b1-3)]Gal
# Outline: as §1
# Fuc(a1-3)GlcNAc = target: Fuc(a1-3)GlcNAc
# Outline: as §1
# [17] = target: Fuc(a1-3)[Gal(b1-4)]Glc6S
# Outline: as §1
# [18] = target: Fuc(a1-3)[Gal(b1-4)]GlcNAc
# Outline: as §1
# [19] = target: Fuc(a1-3)[Gal(b1-4)]GlcNAc(b1-2)Man
# Outline: as §1
# [20] = target: Fuc(a1-3)[Gal(b1-4)]GlcNAc(b1-2)Man(a1-3)[Fuc(a1-3)[Gal(b1-4)]GlcNAc(b1-2)Man(a1-6)]Man(b1-4)GlcNAc(b1-4)GlcNAc
# Outline: as §1
# [21] = target: Fuc(a1-3)[Gal(b1-4)]GlcNAc(b1-2)Man(a1-3)[Fuc(a1-3)[Gal(b1-4)]GlcNAc(b1-2)Man(a1-6)]Man(b1-4)GlcNAc(b1-4)[Fuc(a1-6)]GlcNAc
# Outline: as §1
# [22] = target: Fuc(a1-3)[Gal(b1-4)]GlcNAc(b1-3)Gal(b1-3)[Fuc(a1-4)]GlcNAc
# Outline: as §1
# [23] = target: Fuc(a1-3)[Gal(b1-4)]GlcNAc(b1-3)Gal(b1-4)[Fuc(a1-3)]GlcNAc
# Outline: as §1
# [24] = target: Fuc(a1-3)[Gal(b1-4)]GlcNAc(b1-3)Gal(b1-4)[Fuc(a1-3)]GlcNAc(b1-3)Gal(b1-4)[Fuc(a1-3)]GlcNAc
# Outline: as §1
# [25] = target: Fuc(a1-3)[Gal(b1-4)]GlcNAc(b1-3)GalNAc
# Outline: as §1
# [26] = target: Fuc(a1-3)[Gal(b1-4)]GlcNAc(b1-6)GalNAc
# Outline: as §1
# [27] = target: Fuc(a1-3)[Gal(b1-4)]GlcNAc(b1-6)[Gal(b1-3)GlcNAc(b1-3)]Gal(b1-4)Glc
# Outline: as §1
# [28] = target: Fuc(a1-3)[Gal(b1-4)]GlcNAc6S
# Outline: as §1
# [29] = target: Fuc(a1-3)[Gal3S(b1-4)]Glc
# Outline: as §1
# [30] = target: Fuc(a1-3)[Gal3S(b1-4)]GlcNAc
# Outline: as §1
# [31] = target: Fuc(a1-3)[Gal3S(b1-4)]GlcNAc6S
# Outline: as §1
# [32] = target: Fuc(a1-3)[GalNAc(b1-4)]GlcNAc
# Outline: as §1
# [33] = target: Fuc(a1-3)[GalNAc(b1-4)]GlcNAc6S
# Outline: as §1
# Fuc(a1-4)GlcNAc = target: Fuc(a1-4)GlcNAc
# Outline: as §1
# Fuc(b1-3)GlcNAc = target: Fuc(b1-3)GlcNAc
# Outline: as §1
# Gal(a1-2)Gal = target: Gal(a1-2)Gal
# Outline: as §1
binder,measurement,setting,value
B1,glycan array binding signal (z-score),[1],-0.34
same,glycan array binding signal (z-score),[2],-0.403
same,glycan array binding signal (z-score),[3],-0.384
same,glycan array binding signal (z-score),[4],-0.391
same,glycan array binding signal (z-score),[5],-0.417
same,glycan array binding signal (z-score),[6],-0.329
same,glycan array binding signal (z-score),[7],-0.388
same,glycan array binding signal (z-score),[8],-0.199
same,glycan array binding signal (z-score),[9],0.375
same,glycan array binding signal (z-score),[10],-0.416
same,glycan array binding signal (z-score),[11],-0.198
same,glycan array binding signal (z-score),[12],-0.409
same,glycan array binding signal (z-score),[13],-0.36
same,glycan array binding signal (z-score),[14],-0.336
same,glycan array binding signal (z-score),[15],-0.386
same,glycan array binding signal (z-score),[16],-0.234
same,glycan array binding signal (z-score),Fuc(a1-3)GlcNAc,-0.395
same,glycan array binding signal (z-score),[17],-0.345
same,glycan array binding signal (z-score),[18],-0.386
same,glycan array binding signal (z-score),[19],-0.386
same,glycan array binding signal (z-score),[20],-0.409
same,glycan array binding signal (z-score),[21],-0.385
same,glycan array binding signal (z-score),[22],-0.38
same,glycan array binding signal (z-score),[23],-0.375
same,glycan array binding signal (z-score),[24],-0.405
same,glycan array binding signal (z-score),[25],-0.397
same,glycan array binding signal (z-score),[26],-0.378
same,glycan array binding signal (z-score),[27],0.002
same,glycan array binding signal (z-score),[28],-0.316
same,glycan array binding signal (z-score),[29],-0.389
same,glycan array binding signal (z-score),[30],-0.395
same,glycan array binding signal (z-score),[31],-0.346
same,glycan array binding signal (z-score),[32],-0.355
same,glycan array binding signal (z-score),[33],-0.402
same,glycan array binding signal (z-score),Fuc(a1-4)GlcNAc,-0.371
same,glycan array binding signal (z-score),Fuc(b1-3)GlcNAc,-0.38
same,glycan array binding signal (z-score),Gal(a1-2)Gal,-0.41

# — the supplement of paper PMC8728848
